Assay results taken from PubChem BioAssay AID588855 (National Center for Advancing Translational Sciences (NCATS), 2011).
Hit rate of the full screen: of about 410,000 compounds, about 5,000 (1.2%) were called active. Inconclusive results, whose numbers are uncertain, are shown with a selection of clear calls. Calls follow the shape of the dose curve; as a rule, active = well fitted inhibition curve with a large enough effect; inconclusive = small, poorly fitted or top-dose-only effect; inactive = no such curve, though single readings can be large or run the other way. A potency beside an inconclusive call is a rough fit, not a confirmed value.

Experiment: qHTS for Inhibitors of TGF-b; also: nearly all actives have a fitted effect of over 65% in size
Conditions: HepG2 CAGA-GFP TGF-b/SMAD3 reporter, GFP fluorescence, 18 h, TGF-beta stimulated, 500 pg/mL final; series mostly up to 46.1 µM
Procedure, shortened: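 Read-out: total well GFP (ex488/em500-530) summed from mean per-cell fluorescence. Cells: HEPG2 CAGA-GFP, 1% FBS DMEM, 18 h at 37 degrees C with 500 pg/mL final TGF-beta. Unstimulated wells served as the full-inhibition control; stimulated DMSO wells = 0%.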
Potency is read from the fitted curve at half-maximal effect; tags tell the direction and shape of the fitted curve.

SMILES	Potency
Cc1ccc(C(c2nnnn2C2CCCC2)N2c3ccccc3CC2C)cc1 (stereo unspecified)	inconclusive: 20 µM [inhibitor, single point]
Cc1ccc(Cl)cc1N1CCN(C(=O)c2cc(S(=O)(=O)N3CCCCC3)cn2C)CC1	inconclusive: 35.5 µM [inhibitor, single point]
CCOC(=O)Cc1csc(NC(=O)CN2CCN(c3ccccc3)CC2)n1	inactive
COc1ccc(OCC(=O)NNc2nc3ccccc3s2)cc1	inconclusive: 3.16 µM [inhibitor, single point]
C#CC[N+](C)(C)CC#Cc1ccc(Cl)cc1	inactive
CS(=O)(=O)N1CCN(c2ccccc2NC(=O)c2ccc([N+](=O)[O-])o2)CC1	inconclusive: 22.4 µM [inhibitor, single point]
COC(=O)c1ccc(CSc2nc3ccncc3n2Cc2ccc(F)cc2)cc1	inconclusive: 22.4 µM [inhibitor, single point]
O=C(NCc1cccc(C(F)(F)F)c1)C1CCCN(c2ncccn2)C1 (stereo unspecified)	inactive
CC(C)c1nc2sc3c(N4CCCCC4)ncnc3c2c2c1CCCC2	inactive
Oc1ccc(C23CCCC2C2(CCCC2)c2ccc(O)cc2O3)c(O)c1 (stereo unspecified)	inconclusive: 28.2 µM [inhibitor, single point]
CCOc1ccc(-c2[nH]ncc2Oc2ccccc2OC)c(O)c1	inconclusive: 22.4 µM [inhibitor, single point]
CCc1cc(Cn2nc(-c3ccccc3)cc2C(=O)NCc2cccc(Br)c2)on1	inconclusive: 17.8 µM [inhibitor, partial curve, poor fit]
Cc1ccc(/C=C(\CCC(=O)O)c2nc3ccccc3s2)cc1[N+](=O)[O-]	inconclusive: 3.55 µM [inhibitor, single point]
CC1=NN(C(=O)c2ccc(Cn3ccc([N+](=O)[O-])n3)cc2)C(O)(C(F)(F)F)C1 (stereo unspecified)	inconclusive: 35.5 µM [inhibitor, single point]
CC[C@]12c3[nH]c4ccc(Cl)cc4c3CCN1C(=O)[C@@H](CC(=O)NCCc1ccccn1)C[C@@H]2C(=O)N1CCN(C(=O)c2ccco2)CC1	inconclusive: 15.8 µM [inhibitor, single point]
CCOC(=O)c1c(C)[nH]c(C)c1S(=O)(=O)N1CCC(C(=O)Nc2ccc(OC)c(OC)c2)CC1	inconclusive: 35.5 µM [inhibitor, single point]
Cn1c(N=Nc2ccc(N3CCOCC3)cc2)[n+](C)c2ccccc21	inconclusive: 35.5 µM [inhibitor, single point]
COc1ccc(C2Nc3ccccc3C(=O)N2Cc2ccccc2)cc1OC (stereo unspecified)	inactive
Cc1ccccc1-c1cc(C(=O)Nc2sc(C(=O)OC(C)C)c(C)c2C#N)c2ccccc2n1	active: 3.55 µM
C/C(CCC(C)C)=N\NC(=O)COc1ccccc1-c1ccccc1	inconclusive: 5.62 µM [inhibitor, single point]
CSc1ncc2[nH]c(C(O)c3ccccc3)nc2n1 (stereo unspecified)	inconclusive: 17.8 µM [inhibitor, single point]
COc1ccccc1-n1cnc2cc(NC(=O)c3ccco3)ccc21	inconclusive: 15.8 µM [inhibitor, single point]

SMILES	Potency
CCOC(=O)[C@H]1[C@H]2COc3cc(OC)ccc3[C@@H]2N2C(=O)c3cc(F)ccc3NC(=O)[C@@]12C	inconclusive: 7.08 µM [inhibitor, partial curve, poor fit]
O=C(c1ccc(Cl)cc1)C1CCN(C(=S)Nc2ccccc2)CC1	inconclusive: 15.8 µM [inhibitor, single point]
COc1ccc(C(=O)NCC(c2ccc3c(c2)OCO3)N2CCN(C)CC2)cc1OC (stereo unspecified)	inactive
O=c1cc(-c2ccccc2)[nH]n1-c1nc2ccccc2s1	inconclusive: 1 µM [inhibitor, full curve, poor fit]
COc1ccc2cc3c(N)nn(C(=O)c4ccc(F)cc4Cl)c3nc2c1	inconclusive: 11.2 µM [inhibitor, partial curve]
COc1ccc(NC(=O)C(=O)N2N=C3CCCCC3C2(O)C(F)(F)F)cc1 (stereo unspecified)	inactive
COc1ccc(NC(=O)C2CCCN(C)C2)cc1OCC(C)C (stereo unspecified)	inactive
Cc1cccc(NC(=S)NC(=O)c2ccc(Br)o2)c1C	inconclusive: 11.2 µM [inhibitor, single point]
CCN(CC)C(=O)c1[nH]cnc1C(=O)NCc1ccccc1	inconclusive: 3.16 µM [inhibitor, single point]
COc1cc(/C=C2/C(=O)ON=C2c2ccccc2)ccc1O	inconclusive: 35.5 µM [inhibitor, single point]
CC(C)C[C@H](NC(=O)c1nc[nH]c1C(=O)N1CCN(c2ccccc2)CC1)C(=O)OCc1ccccc1	inconclusive: 35.5 µM [inhibitor, single point]
CC1=C([N+](=O)[O-])C(c2cccc(Br)c2)C2=C(N1)c1ccccc1C2=O (stereo unspecified)	inconclusive: 2.24 µM [inhibitor, partial curve, poor fit]
CCOc1ccc(/C=C/c2ccc3ccccc3n2)cc1OCC	inactive
CCOc1cc(CN2CCN(c3cccc(C(F)(F)F)c3)CC2)ccc1OC	inconclusive: 22.4 µM [inhibitor, single point]
Cc1ccc2ccc3cc(C(=O)Nc4ccc(C)c(F)c4)nc3c2[nH]1	inconclusive: 12.6 µM [inhibitor, single point]
Cc1ccc(-c2cc(C(=O)Nc3ccc(S(=O)(=O)Nc4nccs4)cc3)c3ccccc3n2)c(C)c1	inconclusive: 35.5 µM [inhibitor, single point]
COC(=O)C1=C(C)N(Cc2ccc(C)cc2)C(=O)/C1=C\c1cc(OC)c(OC)c(OC)c1	inconclusive: 15.8 µM [inhibitor, single point]
CC(=O)c1c(C)[nH]c(C(=O)Nc2ccc(C)cn2)c1C	inactive
CCC(C(=O)N(C)Cc1ccccc1)n1nc(C)c2sc3ccccc3c2c1=O (stereo unspecified)	inconclusive: 35.5 µM [inhibitor, single point]
NC(N)=N/N=C/c1ccc(OCc2ccccc2)cc1	inconclusive: 25.1 µM [inhibitor, single point]
O=C(CCc1nc2ccccc2s1)N1CCN(c2ccccc2)CC1	inconclusive: 0.316 µM [inhibitor, full curve, poor fit]
CC1CCC/C(=C\c2ccc(O)cc2)C1=O (stereo unspecified)	inconclusive: 6.31 µM [inhibitor, single point]

SMILES	Potency
Cc1cc(NC(=O)c2ccco2)cc(-c2nc3cc(Cl)ccc3o2)c1O	inactive
CCCCN(CC)C(=O)C1CCC(CNS(=O)(=O)c2cccc3nsnc23)CC1 (stereo unspecified)	inactive
O=C(CSc1nnc(-c2ccco2)n1Cc1ccccc1)NC(=O)NCc1ccco1	inconclusive: 35.5 µM [inhibitor, single point]
O=S(=O)(Nc1ccc(O)c2ccccc12)c1cccs1	inconclusive: 22.4 µM [inhibitor, single point]
CN(CCc1ccccc1)c1cc2c(c3c1ccn3C)C1CCC2O1 (stereo unspecified)	inconclusive: 35.5 µM [inhibitor, single point]
COc1ccc(Cl)cc1NC(=O)CN1C(=O)CSc2ccc(S(=O)(=O)N3CCCC3)cc21	inactive
CCOC(=O)c1nnn(-c2nc(N(C)C)nc(N(C)C)n2)c1C	inconclusive: 10 µM [inhibitor, partial curve, poor fit]
O=C(COCc1cc(-c2ccc3c(c2)OCO3)on1)N1CCN(c2ccc(F)cc2)CC1	inconclusive: 3.16 µM [inhibitor, partial curve, poor fit]
COc1cccc(Oc2coc3cc(OC(=O)N4CCOCC4)ccc3c2=O)c1	inactive
c1ccc(C2[C@H]3CN(Cc4cccnc4)[C@H](c4ccccc4)C34CC2(c2ccccc2)C4)cc1 (stereo partly specified)	inconclusive: 11.2 µM [inhibitor, partial curve, poor fit]
O=c1ccc2ccccc2c2ccccc12	active: 12.6 µM
CSc1ccccc1NC(=O)CN(C)C(=O)c1ccc(-n2cccn2)cc1	inactive
COc1cccc(CN2CCc3ccc(NC(=O)CCc4ccc(C)cc4)cc3C2)c1O	inconclusive: 10 µM [inhibitor, partial curve, poor fit]
O=S(=O)(c1ccc(Cl)cc1)c1nnn2c1nc(NCc1ccccc1)c1sccc12	inactive
CCOc1ccc(NC(=O)CCc2c(C)nc3c(c(C)nn3-c3ccccc3)c2C)cc1	inactive
CSc1ccc(/C=C/c2nc3ccccc3n2S(=O)(=O)c2ccc(F)c(C)c2)cc1	inconclusive: 35.5 µM [inhibitor, single point]
CCOc1ccc(/C=C(\C#N)C(=O)NC2CC2)c(OCC)c1	inactive
CCOc1ccc(NC(=O)CC2C(=O)N(c3cccc(C)c3)C(=O)N2CCC2=CCCCC2)cc1 (stereo unspecified)	inconclusive: 35.5 µM [inhibitor, single point]
CCc1ccc(CN(Cc2ccco2)C(=O)c2ccc(C)cc2)cc1	inactive
O=C(/C=C/c1ccc([N+](=O)[O-])s1)N1CCN(c2ccccc2)CC1	inconclusive: 10 µM [inhibitor, partial curve]
Cn1cccc1Cc1nnc(SCC(=O)Nc2ccc(F)cc2)n1-c1ccc(F)cc1	inconclusive: 11.2 µM [inhibitor, partial curve, poor fit]
Oc1ccc(CN2CCN(c3ccccc3)CC2)c2cccnc12	inconclusive: 2.82 µM [inhibitor, full curve, poor fit]
